{
  "source": "PubChem BioAssay AID889",
  "about": "(National Center for Advancing Translational Sciences (NCATS), 2007)",
  "note": "Values joined by “and” are separate entries in the source; they are usually repeats but may differ in a detail not shown here. Equal entries are not always repeated. Among all 75,000 compounds or so, about 15 (0.02%) were called active. Inconclusive means that the source gave no clear call. Such entries were picked first, then a sample of the others. Calls follow the shape of the dose curve; as a rule, active = well fitted inhibition curve with a large enough effect in the main read-out, with a control signal flat (not every such curve was filed as active); inconclusive = small, poorly fitted or top-dose-only effect, or a change in a side signal; inactive = flat fitted curve, though single readings scatter. Potencies of inconclusive entries are doubtful fits and often do not repeat. “Side channel” marks fits to a control or component signal instead of the main read-out. Potency is read from the fitted curve at half-maximal effect; tags tell the direction and shape of the fitted curve or compound fluorescence and quenching.",
  "data": [
    {"target": "Caspase-7 (Homo sapiens) (UniProt P55210)", "sequence (P55210 whole entry, looked up)": "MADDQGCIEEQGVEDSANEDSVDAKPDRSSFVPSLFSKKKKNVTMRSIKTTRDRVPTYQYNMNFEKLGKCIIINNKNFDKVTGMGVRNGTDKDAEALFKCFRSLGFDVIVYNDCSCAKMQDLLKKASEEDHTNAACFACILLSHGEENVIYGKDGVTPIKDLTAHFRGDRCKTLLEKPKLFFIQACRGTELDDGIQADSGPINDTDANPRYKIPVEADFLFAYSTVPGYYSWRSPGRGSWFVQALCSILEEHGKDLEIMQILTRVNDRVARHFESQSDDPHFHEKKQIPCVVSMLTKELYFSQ", "assay": "qHTS Assay for Allosteric/Competitive Inhibitors of Caspase-7; as to activity change, negative = inhibition: % of control where 0% means no effect", "details": "recombinant caspase-7, Ac-DEVD-AFC fluorescence rate; activity change, negative = inhibition: at 57.5 µM (top of the series) unless noted", "values": [
      {"smiles": "CCN1C(=S)SC(=O)C1=C1C=C(C)N(CCO)C(C)=C1", "Potency": "inactive"},
      {"smiles": "N#Cc1c(/N=C/c2ccco2)sc2c1CCCCC2", "Potency": "inactive"},
      {"smiles": "Cn1nnnc1SCC(=O)N1CCN(Cc2ccccc2)CC1", "Potency": "inconclusive: 12.6 µM [fluorescent, partial curve]"},
      {"smiles": "COc1ccccc1OCC(=O)N1CCN(c2ccccc2OC)CC1", "Potency": "inactive"},
      {"smiles": "CCOC(=O)c1sc2c(c1C)C(c1cccs1)C1=C(CCCC1=O)N2", "note": "(configuration not stated)", "Potency": "inconclusive: 12.6 µM [fluorescent, side channel, partial curve]"},
      {"smiles": "O=C(O)CSC1CC(=O)N(c2cccc(Cl)c2)C1=O", "note": "(configuration not stated)", "Potency": "inactive"},
      {"smiles": "CCOc1ccc2noc3c2c1C(=O)c1ccccc1-3", "Potency": "inconclusive: 7.94 µM [fluorescent, side channel, partial curve]"},
      {"smiles": "CC1CCC(NC(=O)CN2C(=O)C3CCCN3c3ncc(Cl)cc32)CC1", "note": "(configuration not stated)", "Potency": "inconclusive: 31.6 µM [inhibitor, partial curve]"},
      {"smiles": "CC(=O)N1CCC(C(=O)Nc2nc(-c3ccccc3)ns2)CC1", "Potency": "inconclusive: 12.6 µM [fluorescent, partial curve]"},
      {"smiles": "COCCn1c(=O)c(-c2cc(F)cc(F)c2)nc2cnc(N3CCNCC3)nc21", "Potency": "inconclusive: 6.31 µM [fluorescent, side channel, partial curve]"},
      {"smiles": "N#Cc1c(N)nc(SC2CCCCC2=O)c(C#N)c1-c1ccco1", "note": "(configuration not stated)", "Potency": "inconclusive: 25.1 µM [inhibitor, single point]"},
      {"smiles": "O=c1[nH]c2cc3c(cc2cc1C(c1nnnn1C1CCCCC1)N1CCSCC1)OCCO3", "note": "(configuration not stated)", "Potency": "inconclusive: 31.6 µM [inhibitor, single point]"},
      {"smiles": "N#CCCn1c(=O)c(-c2ccc(Cl)cc2)nc2cnc(N3CCOCC3)nc21", "Potency": "inconclusive: 10 µM [fluorescent, side channel, partial curve]"},
      {"smiles": "Cc1ccc(C)c(Cn2c(C(C)O)nc3ccccc32)c1", "note": "(configuration not stated)", "Potency": "inactive"},
      {"smiles": "COc1ccc2nc(N3CCC(C)CC3)c(C#N)cc2c1", "Potency": "inconclusive: 15.8 µM [fluorescent, partial curve]"},
      {"smiles": "COc1ccc(C)cc1N", "Potency": "inactive"},
      {"smiles": "CN1CCN(c2ncc3nc(-c4cccs4)c(=O)n(Cc4cccs4)c3n2)CC1", "Potency": "inconclusive: 3.98 µM [fluorescent, side channel, partial curve]"},
      {"smiles": "COc1ccccc1N1CCN(C(c2ccc(Cl)cc2)c2nnnn2C(C)(C)C)CC1", "note": "(configuration not stated)", "Potency": "inactive"},
      {"smiles": "CC1CN(S(=O)(=O)c2ccc(NC(=O)c3cc(-c4ccccc4O)n[nH]3)cc2)CC(C)O1", "note": "(configuration not stated)", "Potency": "inactive"},
      {"smiles": "COc1cc(C(=O)N(CCc2ccccc2)C2CC3CCC(C2)N3C)cc(OC)c1OC", "note": "(configuration not stated)", "Potency": "inactive"},
      {"smiles": "Cc1noc(C)c1-c1ccc2ncnc(N(C)Cc3ccco3)c2c1", "Potency": "inactive"},
      {"smiles": "COC(=O)C1=CNC=C(C(=O)OC)C1c1ccccc1Cl", "Potency": "inconclusive: 10 µM [fluorescent, side channel, partial curve]"},
      {"smiles": "COC(=O)Cc1c(C)c2ccc(OC(=O)c3ccco3)cc2oc1=O", "Potency": "inconclusive: 12.6 µM [fluorescent, partial curve]"},
      {"smiles": "COCCn1c(=O)c(-c2ccc(Cl)cc2)nc2cnc(N(C)C)nc21", "Potency": "inconclusive: 1.26 µM [fluorescent, side channel, partial curve]"},
      {"smiles": "CC1(C)CC(=O)c2sc(N3CCCCC3)nc2C1", "Potency": "inactive"},
      {"smiles": "CCOC(=O)c1cc2c(=O)n3ccccc3nc2n(Cc2ccccc2)c1=N", "Potency": "inconclusive: 2.51 µM [fluorescent, full curve]"},
      {"smiles": "O=c1c(-c2ccc(F)cc2)nc2cnc(N3CCNCC3)nc2n1C1CC1", "Potency": "inconclusive: 10 µM [fluorescent, side channel, partial curve]"},
      {"smiles": "C1CCN(c2nc3nonc3nc2N2CCCCC2)CC1", "Potency": "inactive"},
      {"smiles": "COc1ccc(C2=CC(c3c(C)nn(-c4ccccc4)c3Cl)n3nnnc3N2)cc1OC", "note": "(configuration not stated)", "Potency": "inconclusive: 31.6 µM [fluorescent, partial curve]"},
      {"smiles": "Cc1cc(/C=N/n2cnnc2)c(C)n1-c1ccc(OCc2ccc(F)cc2)cc1", "Potency": "inactive"},
      {"smiles": "COc1ccc(-c2nc3cnc(Nc4ccccc4)nc3n(C[C@H]3CCCO3)c2=O)cc1", "Potency": "inconclusive: 2.51 µM [fluorescent, full curve]"},
      {"smiles": "COc1cccc(Nc2ncc3nc(C)c(=O)n(Cc4cccs4)c3n2)c1", "Potency": "inconclusive: 31.6 µM [fluorescent, side channel, single point]"},
      {"smiles": "O=C(Nc1ccc2ccccc2c1)c1cnccn1", "Potency": "inactive"},
      {"smiles": "COc1ccccc1N=c1oc2cc(O)ccc2cc1C(=O)NCC1CCCO1", "note": "(configuration not stated)", "Potency": "inconclusive: 25.1 µM [fluorescent, partial curve]"},
      {"smiles": "C=CCSc1nnc2c(n1)OC(c1cccnc1)Nc1ccccc1-2", "note": "(configuration not stated)", "Potency": "inactive"},
      {"smiles": "CC(C)(C)c1c2c(c(C(C)(C)C)c3c1OCN(Cc1ccccc1)C3)OCN(Cc1ccccc1)C2", "activity change, negative = inhibition": "inactive: -7.36% [at 11.5 µM]"},
      {"smiles": "COc1ccc(-c2ccc(-c3noc(-c4ccccc4OC)n3)c(OC)n2)cc1", "Potency": "inconclusive: 25.1 µM [fluorescent, partial curve]"},
      {"smiles": "CC(C)OCCCn1c(=NC(=O)c2ccncc2)c(C#N)cc2c(=O)n3ccccc3nc21", "Potency": "inconclusive: 2.51 µM [fluorescent, side channel, full curve]"},
      {"smiles": "CNc1nc2sc3c(c2c(=O)n1C)CC(C)(C)SC3", "Potency": "inconclusive: 6.31 µM [inhibitor, single point]"},
      {"smiles": "COc1ccc(C(=O)NCc2nc3ccccc3[nH]2)cc1OC", "Potency": "inactive"},
      {"smiles": "Cn1c(=O)c(-c2ccccc2)nc2cnc(Oc3ccccc3)nc21", "Potency": "inconclusive: 25.1 µM [fluorescent, side channel, single point]"},
      {"smiles": "CN(C)c1ncc2nc(-c3ccc(F)cc3)c(=O)n(Cc3cccs3)c2n1", "Potency": "inconclusive: 5.01 µM [fluorescent, full curve]"},
      {"smiles": "CCCCCn1c(-c2ccco2)nc2nc3ccccc3nc21", "Potency": "inconclusive: 25.1 µM [fluorescent, partial curve]"},
      {"smiles": "O=C(NCc1ccco1)c1cc2nc(-c3cccs3)cc(C(F)(F)F)n2n1", "Potency": "inconclusive: 25.1 µM [fluorescent, partial curve]"},
      {"smiles": "CCOC(=O)c1sc(NC(=O)CSc2nc3c(cc2C#N)CCCCCC3)c(C#N)c1C", "Potency": "inconclusive: 3.98 µM [inhibitor, partial curve]"},
      {"smiles": "CC(C)Cc1cc(-c2ccco2)c(C#N)c(N)n1", "Potency": "inactive"},
      {"smiles": "Cc1nc(N=Nc2cc(S(=O)(=O)O)c3cc([N+](=O)[O-])cc(S(=O)(=O)O)c3c2)c(COP(=O)(O)O)c(C=O)c1O", "Potency": "inactive"},
      {"smiles": "CN1CCc2c(sc(/N=C/c3ccco3)c2C(N)=O)C1", "Potency": "inconclusive: 15.8 µM [fluorescent, side channel, partial curve]"},
      {"smiles": "COc1ccc(-n2c(=O)cnc3cnc(Nc4ccccc4)nc32)cc1", "Potency": "inactive"},
      {"smiles": "COc1cccc(Nc2ncc3nc(C)c(=O)n(CCC#N)c3n2)c1", "Potency": "inconclusive: 31.6 µM [fluorescent, single point]"},
      {"smiles": "COC(=O)c1c(C#N)c(N)nc2c1CCCC2", "Potency": "inconclusive: 15.8 µM [fluorescent, partial curve]"},
      {"smiles": "CCC(C)(C)n1nnnc1C(c1cc2cc3c(cc2[nH]c1=O)OCO3)N1CCN(C)CC1", "note": "(configuration not stated)", "Potency": "inconclusive: 25.1 µM [fluorescent, partial curve]"},
      {"smiles": "CCOC(=O)Nc1cccc(Nc2ccccc2)c1", "Potency": "inactive"},
      {"smiles": "COc1ccc2nc3cc(Cl)ccc3c(Nc3ccc(O)c(CN4CCN(C)CC4)c3)c2c1", "Potency": "inconclusive: 3.16 µM [fluorescent, partial curve]"},
      {"smiles": "Cc1ccccc1CS(=O)(=O)CCC(=O)N1CCN(c2ccc(N3CCOCC3)nn2)CC1", "Potency": "inconclusive: 25.1 µM [inhibitor, single point]"},
      {"smiles": "O=c1cnc2cnc(N3CCNCC3)nc2n1CCc1ccccc1", "Potency": "inconclusive: 25.1 µM [inhibitor, single point]"},
      {"smiles": "CC[C@@]1(O)C(=O)OCc2c1cc1n(c2=O)Cc2cc3c(CN(C)C)c(O)ccc3nc2-1", "Potency": "inconclusive: 10 µM [fluorescent, side channel, partial curve] and inconclusive: 3.16 µM [fluorescent, side channel, partial curve]"},
      {"smiles": "O=c1oc2ccccc2cc1-c1nc2ccccc2o1", "Potency": "inconclusive: 15.8 µM [fluorescent, partial curve]"},
      {"smiles": "CSc1nnc2c(n1)OC(c1ccc(C(=O)O)cc1)N(C(C)=O)c1ccccc1-2", "note": "(configuration not stated)", "Potency": "inconclusive: 25.1 µM [inhibitor, partial curve]"},
      {"smiles": "CCCn1c2ccccc2c2nnc(SCC(=O)OC)nc21", "Potency": "inactive"},
      {"smiles": "Cn1c(=O)c2c(nc(CN3CCN(c4ccc(F)cc4)CC3)n2CCN2CCOCC2)n(C)c1=O", "Potency": "inconclusive: 12.6 µM [fluorescent, partial curve]"},
      {"smiles": "CCC(=O)Oc1ccc2c(C)c(Cl)c(=O)oc2c1", "Potency": "inconclusive: 12.6 µM [fluorescent, side channel, partial curve]"},
      {"smiles": "COc1ccc(-c2cc3ccc(OCc4nn[nH]n4)cc3oc2=O)cc1", "Potency": "inconclusive: 25.1 µM [fluorescent, side channel, partial curve]"},
      {"smiles": "COCCCn1c(=S)[nH]c2ccc(N3CCOCC3)cc2c1=O", "Potency": "inconclusive: 25.1 µM [fluorescent, partial curve]"},
      {"smiles": "Nc1ncnc2c1nc(Sc1ccc(Cl)cc1)n2[C@@H]1O[C@H]2COP(=O)(O)O[C@@H]2[C@H]1O", "Potency": "inactive"},
      {"smiles": "N#CCCn1c(=O)c(-c2cccc(C#N)c2)nc2cnc(N3CCOCC3)nc21", "Potency": "inconclusive: 3.98 µM [fluorescent, full curve]"},
      {"smiles": "FB(F)F", "Potency": "inactive"}
    ]}
  ]
}
